According to PubChem BioAssay AID743279 (National Center for Advancing Translational Sciences (NCATS), 2014):
Hit rate of the full screen: of about 360,000 compounds, about 17,000 (4.7%) were called active. The shares of active, inactive and inconclusive entries below differ from those in the screen. Cut-off read from the data, not from the text of the source: active = activity change below about -50%; inconclusive = mostly about -30% to -49%; inactive = weaker than that.

Assay: qHTS for Inhibitors of Inflammasome Signaling: IL-1-beta AlphaLISA Primary Screen
Conditions: THP-1 LPS/ATP IL-1B secretion, 16 h; at 57.5 µM, active compounds read low
Outline: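 Secreted IL-1B measured by AlphaLISA bead assay after 16 h compound exposure of THP-1 cells; compounds (final up to 57.5 uM) added 1 h before LPS (250 ng/mL) and ATP (1.25 mM) stimulation; lower signal means less secretion.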
% is set by controls: 0 for no effect and ±100 for the full control effect.

Row | Compound | activity change
1 | Cc1nc2ncnn2c(N2CCN(c3cccc(C(F)(F)F)c3)CC2)c1C | inconclusive: -37.8%
2 | COC(=O)C1=C(C)NC(=O)/C1=C\c1cc(C)n(-c2ccccc2)c1C | inconclusive: -40.7%
3 | COC(C(=O)N/N=C(\C)c1ccc(C(C)(C)C)cc1)c1ccccc1 (stereo not drawn) | inconclusive: -33.4%
4 | Cc1nc(N2CCN(C)CC2)c2c3c(sc2n1)CCCC3 | inconclusive: -36.5%
5 | CCCCN(CCCC)CCn1cnc2c([nH]c3ccc(OC)cc32)c1=O | inactive: -3.75%
6 | COc1cccc(/C=N/Nc2cc(N3CCOCC3)ncn2)c1O | active: -89.9%
7 | CCOC(=O)c1sc(NC(=O)c2ccccc2C(=O)O)c(C(=O)OCC)c1C | inconclusive: -43.5%
8 | Oc1ccccc1Nc1nc(NCc2ccccc2)c2ccccc2n1 | active: -101%
9 | CC(=O)Nc1ccc(Nc2nc(C)c([N+](=O)[O-])c(N(C)c3ccccc3)n2)cc1 | inconclusive: -40%
10 | CCCn1c(N2CCN(C(=O)Nc3ccccc3)CC2)nc2ccccc21 | inconclusive: -47.4%
11 | COC(=O)c1[nH]c2cc(OC)c(OC)cc2c1NC(=O)c1cccc(OC)c1 | inconclusive: -34.6%
12 | COCOc1ccc(/C=C/C(=O)c2c(O)cc(OCOC)cc2OCOC)cc1 | inconclusive: -42.8%
13 | N#Cc1ccc(-c2ccccc2)nc1SCCN1CCOCC1 | active: -75.3%
14 | Cc1nc(-c2ccc(NS(=O)(=O)c3ccccc3)cc2)cs1 | inconclusive: -39%
15 | NC(=O)C(=O)NCCCN1CCOCC1 | inactive: 33%
16 | COc1ccc(-c2cc3cccc(OC)c3oc2=O)cc1 | inactive: 0%
17 | COc1cc(/C=N/O)cc(Br)c1OCc1ccc(Cl)cc1 | inconclusive: -44.8%
18 | CCCNC(=O)C1(C)CCCN(Cc2ccc(-c3ccccc3)cc2)C1 (stereo not drawn) | inconclusive: -40.9%
19 | COc1ccc(C(=S)N2CCN(c3ccccc3C)CC2)cc1OC | inconclusive: -31.8%
20 | O=C(Nc1cccc(S(=O)(=O)N2CCCCCC2)c1)C1CCN(C(=O)c2ccc(Cl)cc2)CC1 | inconclusive: -42.1%
21 | CN1CCN(CCCNC(=O)c2cc3c(-c4ccc(Cl)cc4)nn(C)c3s2)CC1 | inconclusive: -40%
22 | Cc1cccc(N2CCN(C(=O)c3ccc(CNc4c(N5CCC(C)CC5)c(=O)c4=O)cc3)CC2)c1C | inactive: 0%

Row | Compound | activity change
23 | COc1ccc(N2CCN(CCC(=O)c3ccc4ccccc4c3)CC2)cc1 | inconclusive: -33.1%
24 | COc1ccc(/C=C/C(=O)c2ccccn2)cc1 | inconclusive: -49.8%
25 | CCOC(=O)Cc1csc(NC(=O)Nc2ccc(C)cc2)n1 | inconclusive: -47.1%
26 | COc1cccc(NC(=O)C2CCN(Cc3cnn(-c4ccccc4)c3-n3cccc3)CC2)c1 | inconclusive: -31.7%
27 | COc1ccc(-c2nc(-c3ccccc3)c(-c3cccs3)[nH]2)cc1OC | inconclusive: -47.1%
28 | O=C(NN1CCOCC1)c1ccc(Cl)c([N+](=O)[O-])c1 | inconclusive: -39%
29 | N#CCCN1CCN(C(=S)c2ccc(-c3ccc(Cl)c(Cl)c3)o2)CC1 | active: -53.4%
30 | Cc1ccc(-c2cc(C(=O)Nc3cc(C)ccc3C)[nH]n2)c(O)c1 | inconclusive: -41.2%
31 | CCOc1ccc2nc(N/C(N)=N/C(=S)Nc3cccc(C)c3)nc(C)c2c1 | inconclusive: -32.7%
32 | CC(C)c1ccc(NC2CCCN(C(=O)c3n[nH]c4c3CCC4)C2)cc1 (stereo not drawn) | inconclusive: -46.1%
33 | O=C(O)c1c[nH]n2c(=S)ncnc12 | inconclusive: -32.3%
34 | CCc1sc(C(=O)Nc2cccc(-n3cnnn3)c2)cc1C | inconclusive: -36.2%
35 | N#CC(C#N)=C1C=CC=CN1/C(=C\c1ccco1)C(=O)c1ccc(Cl)cc1 | active: -101%
36 | O=C1CCCN1c1ccc(S(=O)(=O)N2CCCCC2)cc1[N+](=O)[O-] | inactive: 0.465%
37 | CC(C)C[C@H]1CNC(=O)C(=O)N1C[C@@H]1CCCN1C[C@H](Cc1ccccc1)N1C[C@H](Cc2ccccc2)N(CCc2ccccc2)C(=O)C1=O | inconclusive: -34.1%
38 | COc1ccc(C)c2sc(N(CCCN(C)C)C(=O)CS(=O)(=O)c3ccc(F)cc3)nc12 | inconclusive: -31.4%
39 | Cn1c(Cc2ccccc2)n[nH]c1=S | inactive: 18.9%
40 | Cc1cc(C)nc(Sc2ccc([N+](=O)[O-])cc2[N+](=O)[O-])n1 | active: -59.8%
41 | Cc1nnc(N(Cc2ccco2)C(=O)c2cccc(C#N)c2)s1 | inactive: 7.09%
42 | Cc1ccc(-c2noc(CCC(=O)NC3CCN(Cc4ccccc4)CC3)n2)cc1 | inconclusive: -44.1%
43 | O=C(COC(=O)c1cc[n+]([O-])cc1)Nc1cccc(Br)c1 | inactive: 6.51%
44 | CC12CCC(C(=O)Nc3ccccc3Cl)(C(Br)C1=O)C2(C)C (stereo not drawn) | inactive: 0%

Row | Compound | activity change
45 | CC(=O)NC(c1ccc(F)c(F)c1)c1nc(-c2cccc(C(C)C)c2)cs1 (stereo not drawn) | inconclusive: -36.3%
46 | CCCOc1ccc(-c2c(C(=O)N/N=C/c3ccncc3)nnn2-c2nonc2N)cc1 | active: -53.8%
47 | O=C(Nc1nc(-c2ccc(Cl)cc2Cl)cs1)C1CCCO1 (stereo not drawn) | inconclusive: -36%
48 | Cc1ccc(NC(=O)C2(C)CCN2C(=O)c2ccccc2CCc2ccccc2)cc1C (stereo not drawn) | inactive: -15.7%
49 | Cc1cc(/C=C(\C#N)C(=O)NCc2cccs2)c(C)n1-c1ccccc1F | inconclusive: -35.8%
50 | O=C(COC(=O)c1cc([N+](=O)[O-])ccc1N1CCOCC1)c1ccc(Br)cc1 | inconclusive: -34.5%
51 | COc1ccccc1CN(C)C(=O)c1cccc(S(=O)(=O)N2CCN(Cc3ccccc3)CC2)c1 | active: -53.9%
52 | O=C(c1ccccc1)c1ccc(C(=O)N2CCN(c3ccccc3O)CC2)cc1 | inconclusive: -42.2%
53 | CCCC(=O)Nc1nnc(/C=C/c2ccccc2)s1 | inconclusive: -35.6%
54 | OC(CNC1CCCCC1)CON=C1CCSc2c(Cl)cccc21 (stereo not drawn) | inconclusive: -35.9%
55 | Cc1ccc(C(=O)N/N=C\c2ccc([N+](=O)[O-])o2)cn1 | inconclusive: -40.6%
56 | Cc1csc(NC(=O)c2nc(-c3ccccc3)n(-c3ccccc3)n2)n1 | inconclusive: -33.6%
57 | CS(=O)(=O)N(Cc1ccccc1)c1ccc(C(=O)Nc2ccc3c(c2)OCO3)cc1 | inconclusive: -30.9%
58 | Cc1ccc(-c2csc(NC(=O)CSC3=NCCS3)n2)cc1 | inconclusive: -33.4%
59 | S=c1[nH]nc(COc2ccc(Cl)cc2)n1Cc1ccccc1 | inactive: 4.22%
60 | NC(=S)N/N=C1/CCSc2ccc3ccccc3c21 | active: -94.8%
61 | CC1CN(C(=O)COC(=O)Cc2ccc(Cl)cc2)CC(C)O1 (stereo not drawn) | inactive: 0%
62 | COC(=O)c1cc(S(=O)(=O)N2CCCC2=O)c(Cl)cc1Cl | inconclusive: -37.4%
63 | C=CCSc1nnc(NC(=O)C2CC(=O)N(c3ccc4c(c3)OCCO4)C2)s1 (stereo not drawn) | inactive: 9.38%
64 | COC(=O)C1=C(C)N=C2SCCC(=O)N2C1c1cccs1 (stereo not drawn) | inactive: 5.97%
65 | Cc1nc(Nc2ccc(S(N)(=O)=O)cc2)sc1C(=O)Nc1ccccc1 | inconclusive: -40.4%
66 | Cc1cc(Nc2ccccc2)n(C(=O)c2ccc(N)cc2)n1 | inconclusive: -36.4%

Row | Compound | activity change
67 | COc1ccc2cc(CCNC(=O)c3cccc([N+](=O)[O-])c3)c(=O)[nH]c2c1 | inactive: -0.371%
68 | CCc1nnc(NS(=O)(=O)c2ccc(NC(=S)NC(=O)/C=C/c3ccc(F)cc3)cc2)s1 | inconclusive: -40%
69 | CN(c1ncnc(N)c1[N+](=O)[O-])C1CCCCC1 | inconclusive: -47.9%
70 | CC(C)(C)OC(=O)NNc1c2ccccc2nc2ccccc12 | active: -75.9%
71 | CC1(C(=O)N2CCC(CC3CC(c4ccc(Cl)cc4)=NO3)(C(=O)NCC3CCCCC3)CC2)CC1 (stereo not drawn) | inconclusive: -41.2%
72 | CCCCOc1ccc(N(CC(=O)NC(C)(C)C)C(=O)CCC(=O)Nc2nccs2)cc1 | inconclusive: -32.3%
73 | C/C(=C\C(=O)c1ccc(Cl)cc1)Nc1ccc(Br)cc1 | active: -50.3%
74 | Cc1ccc(NC(=O)CCN2CCN(C/C=C/c3ccccc3)CC2)cc1 | inconclusive: -34.9%
75 | Nc1ccn([C@@H]2O[C@H](CNCc3cc(Cl)ccc3OCc3ccc(Cl)cc3)[C@@H](O)[C@H]2O)c(=O)n1 | inconclusive: -41.6%
76 | COc1ccc(-c2nc3oc4cc(OC)ccc4c(=O)c3c(=O)n2Cc2ccco2)cc1 | inactive: -24%
77 | CC(=O)N1CCc2c(sc(NC(=O)c3ccc([N+](=O)[O-])o3)c2C#N)C1 | inconclusive: -42.5%
78 | COc1ccccc1NS(=O)(=O)c1ccc(C)c(NS(=O)(=O)c2cc(C(=O)O)cc(C)c2C)c1 | inactive
79 | COc1ccc(C(CNC(=O)COc2cc(C)c(Cl)c(C)c2)N2CCCCC2)cc1 (stereo not drawn) | inconclusive: -35.1%
80 | Cc1ccsc1C(=O)N/N=C/c1ccc2c(c1)OCO2 | inconclusive: -45.3%
81 | CCOC(=O)c1c(NC(=O)Cc2cccs2)sc(C(=O)N2CCCCC2)c1C | inactive: -9.38%
82 | CCOC(=O)/C=C/C(=O)Nc1nccs1 | active: -85.9%
83 | O=C(Nc1ccccc1)NN(C(=O)CCl)c1ccccc1 | active: -96.1%
84 | COC(=O)[C@H](C)N(Cc1ccc(Cl)c(Cl)c1)S(=O)(=O)CCNC1CCCC1 | inconclusive: -33.1%
85 | Cc1cc(Cl)ccc1Oc1ncc(-c2ccc(Cl)cc2)cn1 | inactive: -9.71%
86 | Cc1ccnc(Nc2nc(-c3sc(C)nc3C)cs2)c1 | active: -100%
87 | CC1CCCN(S(=O)(=O)c2cccc([N+](=O)[O-])c2)C1 (stereo not drawn) | inactive: -3.85%
88 | COc1ccc(NC(=O)C(c2ccc(OC)cc2)N(C)C(=O)Cc2cccs2)cc1 (stereo not drawn) | inconclusive: -45.4%
